Source: a collection of fitness landscapes (doi:10.1016/j.celrep.2020.107928)
In all, about 81,000 sequences were measured (“one-hybrid fitness for binding NBS DNA”: median about -0.1, highest 2% from about 0.36 on). The list shows a part of the results.

B1: Caulobacter ParB omega fusion; a variant is named by its letters at X, in order, B8GW30 (parent)
chain: MESVVVGEPGMSEGRRGLGRGLSALLGEVDAAPAQAPGEQLGGSREAPIEILQRNPDQPRRTFREEDLEDLSNSIREKGVLQPILVRPSPDTAGEYQIVAGERAWRAAQRAGLKTVPIMVRELDDLAVLEIGIIENVQRADLNVLEEALSYKVLMEKFERTQENIAQTIGKSXSHVANXMRLLXLPDEVQSYLVSGELTAXHARAIAAAADPVALAKQIIEGGLSVRETEALARKAPNLSAGKSKGGRPPRVKDTDTQALESDLSSVLGLDVSIDHRGSTGTLTITYATLEQLDDLCNRLTRGI

Variants of: B1
Assay: one-hybrid fitness for binding NBS DNA (the Noc-binding site; scaled: cognate 1, non-cognate 0); higher = stronger binding
Conditions: with NBS DNA site
Method in brief: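 Values were rescaled so that cognate is 1 and non-cognate is 0. Each is a fitness, the log change in a variant's read ratio to wild type from Illumina reads of plasmids before and after selection, with three replicate libraries pooled and variants under 10 reads dropped. Selection of the Caulobacter ParB libraries, four specificity codons randomised, used E. coli USO with a HIS3 reporter, site 19 bp from the promoter, on M9-minus-histidine with 0.1 mM IPTG and 5 mM 3-AT for 48 hours at 37°C.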

Point of comparison: KRHT, “one-hybrid fitness for binding NBS DNA” value 0.651. Against it:
- GDFY — lower, ≤ 0.2
- EKPS — lower, ≤ 0.2
- PHNN — lower, ≤ 0.2
- YSSC — lower, ≤ 0.2
- PQPF — lower, ≤ 0.2
- EQGT — lower, ≤ 0.2
- ESRG — lower, ≤ 0.2
- GLNV — lower, ≤ 0.2
- SYNV — lower, ≤ 0.2
- VCRV — lower, ≤ 0.2
- GRKR — lower, 0.264
- CCTE — lower, ≤ 0.2
- QSPH — lower, ≤ 0.2
- QLSH — lower, ≤ 0.2
- PGSK — lower, ≤ 0.2
- RCSM — lower, ≤ 0.2
- RMQH — lower, ≤ 0.2
- WFGS — lower, ≤ 0.2
- SASQ — lower, ≤ 0.2
- YRHV — lower, ≤ 0.2
- YNVS — lower, ≤ 0.2
- VMEL — lower, ≤ 0.2
- RLYC — lower, ≤ 0.2
- CRRY — lower, ≤ 0.2
- HYLE — lower, ≤ 0.2
- EEHS — lower, ≤ 0.2
- YLTR — lower, ≤ 0.2
- AEFS — lower, ≤ 0.2
- RQSH — lower, ≤ 0.2
- CYTY — lower, ≤ 0.2
- GQRG — lower, ≤ 0.2
- NVMC — lower, ≤ 0.2
- EAAL — lower, ≤ 0.2
- VGNL — lower, ≤ 0.2
- WLDE — lower, ≤ 0.2
- PQKA — lower, ≤ 0.2
- ASPV — lower, ≤ 0.2
- LPWL — lower, ≤ 0.2
- LKTN — lower, ≤ 0.2
- RCSW — lower, ≤ 0.2
- GDPL — lower, ≤ 0.2
- ATHI — lower, ≤ 0.2
- CDLG — lower, ≤ 0.2
- SRFF — lower, ≤ 0.2
- QWPF — lower, ≤ 0.2
- YVHG — lower, ≤ 0.2
- WLCF — lower, ≤ 0.2
- ALRV — lower, ≤ 0.2
- CLCR — lower, ≤ 0.2
- ESCF — lower, ≤ 0.2
- QSPF — lower, ≤ 0.2
- AHRF — lower, ≤ 0.2
- ELCS — lower, ≤ 0.2
- KNMG — lower, ≤ 0.2
- QKQV — lower, ≤ 0.2
- QISC — lower, ≤ 0.2
- TASN — lower, ≤ 0.2
- WLNG — lower, ≤ 0.2
- IVNS — lower, ≤ 0.2
- DVSN — lower, ≤ 0.2
- QWAG — lower, ≤ 0.2
- ESST — lower, ≤ 0.2
- NSPP — lower, ≤ 0.2
- TCQS — lower, ≤ 0.2
- RPCF — lower, ≤ 0.2
- WGLG — lower, ≤ 0.2
- PHKY — lower, ≤ 0.2
- SIND — lower, ≤ 0.2
- QGMH — lower, ≤ 0.2
- QCDY — lower, ≤ 0.2
- FMTW — lower, ≤ 0.2
- IANG — lower, ≤ 0.2
- LHHD — lower, ≤ 0.2
- CMAY — lower, ≤ 0.2
- AVRE — lower, ≤ 0.2
- WRQG — lower, ≤ 0.2
